According to PubChem BioAssay AID504832 (National Center for Advancing Translational Sciences (NCATS), 2011):
Among all 310,000 compounds or so, about 18,000 (5.8%) were called active. Inconclusive means that the source gave no clear call. Such entries were picked first, then a sample of the others. The call rests on the fitted dose curve; in most records, active means well fitted inhibition curve with a large enough effect; inconclusive means small, poorly fitted or top-dose-only effect, or another doubt; inactive means no such curve, though single readings can be large or run the other way. No potency is given beside an inconclusive call; the fits are too rough.
On the % scale 0 is the no-effect control and ±100 the full control effect; potency means the concentration at half of the fitted maximal effect; tags describe the fitted curve by direction and shape.

Test: Primary qHTS for delayed death inhibitors of the malarial parasite plastid, 48 hour incubation
Conditions: P. falciparum luciferase growth in erythrocytes; series mostly up to 28.7 µM; activity change, negative = inhibition: at the top concentration
Procedure, shortened: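 Here the parasites carry a stable luciferase gene and grow inside erythrocytes in Albumax-based RPMI medium with compound for one erythrocytic cycle. Activity is scored as loss of luminescent signal.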
For `CCc1ccc(NC(=O)CSc2nc3n[nH]c(C)c3c(=N)n2-c2cccc(OC)c2)cc1`, the Potency was inconclusive [inhibitor, single point].
For `CN1CCN(c2ccc(NC(=O)c3ccc(-c4cccc([N+](=O)[O-])c4)o3)cc2)CC1`, the Potency was active: 1.47 µM.
In the case of `Cc1cc(C(=O)N/N=C/c2cc(Br)ccc2OC(=O)c2ccccc2Cl)n[nH]1`, the Potency is reported as inconclusive [inhibitor, partial curve].
With `CC(=O)N1CCN(c2ccccc2NC(=O)c2ccco2)CC1` the Potency was inconclusive [inhibitor, partial curve].
With `CCOc1ccc(CCNC(=O)COC(=O)c2ccc(S(=O)(=O)N3CCCC3)cc2)cc1OCC` the Potency was inconclusive [inhibitor, single point].
In the case of `O=C(Cc1ccccn1)c1ccc(Cl)cc1`, the Potency is reported as inconclusive [inhibitor, single point].
In the case of `O=C(C1=COCCO1)N(Cc1nnc(-c2ccc(Cl)cc2)o1)C1CC1`, the Potency is reported as inconclusive [inhibitor, single point].
For `CCC(C)(C)n1nnnc1C(c1cccc(C#N)c1)N1CCN(c2cccc(C)c2C)CC1` (stereo unspecified), the Potency was inconclusive [inhibitor, single point].
In the case of `CC(C)c1ccc2oc(=O)cc(CN3CCOCC3)c2c1`, the “activity change, negative = inhibition” value is reported as inactive: 9.44%.
With `CC1CCCCC1NC(=O)CN1C(=O)CSc2cc(S(=O)(=O)N3CCCCCC3)ccc21` (stereo unspecified) the Potency was inconclusive [inhibitor, single point].
With `Cc1ccc2cc(CN(c3ccc(C)c(C)c3)S(C)(=O)=O)c(=O)[nH]c2c1` the Potency was inconclusive [inhibitor, single point].
In the case of `Cc1cccc2cc3c(NC(=O)C(C)(C)C)nn(CC(C)C)c3nc12`, the Potency is reported as inconclusive [inhibitor, single point].
In the case of `COc1ccc(C2CC(c3ccc4ccccc4c3)=NN2C(=O)CN2CCC(C(N)=O)CC2)cc1` (stereo unspecified), the Potency is reported as inconclusive [inhibitor, single point].
In the case of `CCCCOC1CC(c2ccc(OCc3ccc(OC)cc3)c(OC)c2)N(C)O1` (stereo unspecified), the Potency is reported as inconclusive [inhibitor, single point].
In the case of `CCOC(=O)CCCc1ccc(/C(C)=N/NC(N)=S)cc1`, the Potency is reported as inconclusive [inhibitor, full curve].
In the case of `CCCCN(C(=O)CNC(=O)c1ccco1)C(C(=O)NC1CCCC1)c1ccc(OC)cc1` (stereo unspecified), the “activity change, negative = inhibition” value is reported as inactive: -9.77%.
For `COc1cccc2c1CCC(NC(C)=O)C2=O` (stereo unspecified), the Potency was inconclusive [inhibitor, single point].
In the case of `Cc1ccc(C)c(Cn2nc(-c3cc(C)ccc3C)ccc2=O)c1`, the “activity change, negative = inhibition” value is reported as inactive: 0%.
In the case of `O=C(CSc1nnc(CNC(=O)c2ccc(F)cc2)o1)NCc1ccccc1Cl`, the Potency is reported as inconclusive [inhibitor, single point].
For `c1ccc(CNc2nc(-c3cccnc3)nc3ccccc23)cc1`, the Potency was active: 9.28 µM.
With `CCN1CCN(C(=O)c2cccc(OC3CCN(S(=O)(=O)N(C)C)CC3)c2)CC1` the “activity change, negative = inhibition” value was inactive: 1.33%.
With `Cc1ccccc1OCC(O)CN(CCO)Cc1ccccc1` (stereo unspecified) the Potency was inconclusive [inhibitor, partial curve, poor fit].
With `Cc1ccc(S(=O)(=O)N2CCOCC2)cc1C(=O)N1CCN(S(=O)(=O)c2cccs2)CC1` the Potency was inconclusive [inhibitor, single point].
For `COc1ccc(C(=O)COc2nc(C)cc(C)c2C#N)cc1`, the Potency was inconclusive [inhibitor, partial curve, poor fit].
For `Cc1cc(OCC(=O)NCCc2c[nH]c3ccccc23)c2c(C)cc(=O)oc2c1`, the Potency was inconclusive [inhibitor, single point].
In the case of `COc1ccc(/C=C/C(=O)NCCc2nc3ccccc3[nH]2)cc1`, the Potency is reported as inconclusive [inhibitor, partial curve].
In the case of `CCOC(=O)c1c(CNc2ccncc2)n(C)c2cc(Br)c(O)cc12`, the Potency is reported as active: 0.329 µM.
With `COc1cc(NC(=O)CSc2nc3ccccc3c(=O)n2C)ccc1NC(=O)c1ccco1` the Potency was inconclusive [inhibitor, full curve, poor fit].
In the case of `Cc1cc(N=Cc2c(O)n(-c3ccc(C)c(C)c3)c(=O)c3ccccc23)no1`, the Potency is reported as inconclusive [inhibitor, single point].
For `Nc1ccc(-c2nc3c(Cl)cc(N)cc3[nH]2)cc1`, the Potency was inconclusive [inhibitor, single point].
In the case of `CN1CCC(N(C)C(=O)c2cc(-c3ccccc3Cl)nc3ccccc23)CC1`, the “activity change, negative = inhibition” value is reported as inactive: -45.5%.
In the case of `CC(C)CNC(=S)NC1CC2CCCC(C1)N2Cc1cccs1` (stereo unspecified), the Potency is reported as active: 13.1 µM.
For `CN(C)CCCN(C(=O)c1ccc(S(=O)(=O)N(C)C2CCCCC2)cc1)c1nc2ccc(Br)cc2s1`, the Potency was active: 13.1 µM.
In the case of `CCOc1ccc(-c2nonc2NC(=O)c2ccco2)cc1OCC`, the Potency is reported as active: 0.37 µM.
In the case of `COc1ccc(C(=O)C2CCCN(Cc3cccc4c3OCO4)C2)cc1OC` (stereo unspecified), the “activity change, negative = inhibition” value is reported as inactive: -5.05%.
For `Cc1cc2c(cc1S(=O)(=O)N1CCN(c3cccc(C)c3C)CC1)OCCN2C`, the Potency was inconclusive [inhibitor, partial curve, poor fit].
In the case of `COc1cccc(CNc2ncnc3cc(OC)c(OC)cc23)c1`, the Potency is reported as inconclusive [inhibitor, single point].
For `O=C(COc1ccccc1[N+](=O)[O-])N1CCCc2ccccc21`, the Potency was inconclusive [inhibitor, single point].
In the case of `Cc1cc(C)c(C)c(S(=O)(=O)N2CCN(c3ncnc4sc(C)c(C)c34)CC2)c1C`, the Potency is reported as inconclusive [inhibitor, partial curve, poor fit].
For `CCOC(=O)C1CCN(C(=O)c2cn(CCOC)c(=O)c3c2c2ccccc2n3C)CC1`, the Potency was inconclusive [inhibitor, single point].
With `Cc1cc(C)c(C(=O)/C=C/c2cccc3ccccc23)c(=O)[nH]1` the Potency was inconclusive [inhibitor, partial curve, poor fit].
With `O=C1CCC([N+](=O)[O-])C(c2cc(Br)ccc2F)N1` (stereo unspecified) the “activity change, negative = inhibition” value was inactive: 25.2%.
For `COc1ccc2c(c1)CCC1C2=NN(/C(C)=C\C(C)=O)C1c1ccc(F)cc1` (stereo unspecified), the Potency was inconclusive [inhibitor, single point].
For `CCOC(=O)c1c(NC(=O)CSc2nc3ccccc3c(=O)n2-c2ccc(F)cc2)sc(C(C)=O)c1C`, the Potency was active: 4.15 µM.
With `COc1ccccc1CNC(=O)c1cc2ccccc2oc1=O` the “activity change, negative = inhibition” value was inactive: -16.8%.
With `O=C(NCC1CCCO1)c1ccc2c(=O)n(Cc3ccc(Cl)cc3)c(=S)[nH]c2c1` (stereo unspecified) the “activity change, negative = inhibition” value was inactive: -20.5%.
With `CCOC(=O)N1CCC(NC(=O)c2cn(-c3ccc(OC)cc3)c(=O)c3ccccc23)CC1` the Potency was inconclusive [inhibitor, full curve].
For `COCCN=c1scc(-c2cc(OC)c(OC)c(OC)c2)n1/N=C/c1c(C)[nH]c2ccccc12`, the Potency was active: 7.38 µM.
For `COc1ccccc1NS(=O)(=O)c1cc(NC(=O)Cn2cnc3c2c(=O)n(C)c(=O)n3C)ccc1C`, the Potency was inconclusive [inhibitor, full curve].
For `CCOC(=O)c1c(CN2CCN(c3ccccc3)CC2)oc2cc(Br)c(O)cc12`, the Potency was active: 1.65 µM.
With `CCN(CC)S(=O)(=O)c1ccc(OC)c(NC(=O)c2ccc([N+](=O)[O-])cc2)c1` the “activity change, negative = inhibition” value was inactive: -4.26%.
For `O=C(CSc1nc2ccc(Cl)cc2[nH]1)Nc1ccc2[nH]c(=O)[nH]c2c1`, the “activity change, negative = inhibition” value was inactive: 0%.
For `COc1ccc(CCN2CC(C(=O)NCCc3cccc(F)c3)CCC2=O)cc1` (stereo unspecified), the “activity change, negative = inhibition” value was inactive: -0.466%.
In the case of `O=C1c2cc([N+](=O)[O-])ccc2-c2ncccc21`, the Potency is reported as inconclusive [inhibitor, single point].
For `Cc1c(NC(=O)C2CC(c3c(F)cccc3Cl)=NO2)c(=O)n(-c2ccccc2)n1C` (stereo unspecified), the “activity change, negative = inhibition” value was inactive: 22.5%.
With `COc1ccc(C(C(O)C(=O)c2c[nH]c3ccccc23)N2CCN(c3ccc(OC)cc3)CC2)cc1` (stereo unspecified) the Potency was active: 13.1 µM.
For `CC1CCN(c2ccc3nnc(CCC(=O)Nc4cccc(F)c4)n3n2)CC1`, the Potency was inconclusive [inhibitor, single point].
For `CC1(c2ccccc2)NC(=O)N(CC(=O)Nc2cccc(/C=C/c3ccccn3)c2)C1=O` (stereo unspecified), the Potency was inconclusive [inhibitor, single point].
In the case of `COc1ccc(-c2sc3cc(OC)c(OC)cc3c2C#CC2(O)CCCCC2)cc1`, the Potency is reported as inconclusive [inhibitor, single point].
With `Nc1c(C(=O)OCC(=O)Nc2ccc(OC(F)F)cc2)[nH]c(=O)[nH]c1=O` the “activity change, negative = inhibition” value was inactive: 19.4%.
In the case of `CCOC(=O)C1CCCN(c2cc(C)nc3cc(-c4ccc(Cl)cc4)nn23)C1` (stereo unspecified), the Potency is reported as inconclusive [inhibitor, single point].
For `C=CCn1c(SCc2nc3sc4c(c3c(=O)[nH]2)CCCC4)nc2ccccc2c1=O`, the “activity change, negative = inhibition” value was inactive: -10.4%.
In the case of `NCCCCC(N)c1cn([C@@H](CCC(=O)O)C(=O)N2CCNCC2)nn1` (stereo partly specified), the “activity change, negative = inhibition” value is reported as inactive: 3.68%.
For `CC1CCN(C2=NN3C(=N)/C(=C\c4ccc(OC(=O)c5ccco5)cc4)C(=O)N=C3S2)CC1`, the “activity change, negative = inhibition” value was inactive: 9.29%.
In the case of `COc1ccc(NC(=O)/C=C/c2ccccc2)c([N+](=O)[O-])c1`, the “activity change, negative = inhibition” value is reported as inactive: 76%.
With `c1cc(-c2cccs2)nc(-c2cccs2)c1` the “activity change, negative = inhibition” value was inactive: 23.6%.
In the case of `Cc1cc(C(=O)CSc2nnc(-c3cccs3)o2)c(C)n1-c1ccccc1`, the “activity change, negative = inhibition” value is reported as inactive: 15%.
For `O=c1[nH]c2cc3c(cc2cc1C(c1nnnn1C1CCCCC1)N1CCSCC1)OCCO3` (stereo unspecified), the Potency was active: 13.1 µM.
In the case of `Cc1ccc(N2CC(C(=O)N3CCCCC3)CC2=O)cc1C` (stereo unspecified), the “activity change, negative = inhibition” value is reported as inactive: 11.7%.
For `O=C(CN(C(=O)c1csnn1)c1cccc(C(F)(F)F)c1)NCCc1ccccc1`, the “activity change, negative = inhibition” value was inactive: -4.3%.
With `Cc1[nH]c2ccccc2c1CCN(Cc1cccnc1)C(=S)Nc1cccc(F)c1` the Potency was inconclusive [inhibitor, single point].
